Where a SMILES comes first, the peptide text is derived from it. The star is where a group is joined. Doxorubicin(3'-N) = COc1cccc2c1C(=O)c1c(O)c3c(c(O)c1C2=O)C[C@@](O)(C(=O)CO)C[C@@H]3O[C@H]1C[C@H](N*)[C@H](O)[C@H](C)O1; Mal(CH2CH2O)6CH2CH2CO = O=C1C=CC(=O)N1CCOCCOCCOCCOCCOCCOCCC(=O)*; MaleimidoPEG4propanoyl = O=C1C=CC(=O)N1CCOCCOCCOCCOCCC(=O)*; X4 = [NH3+][Pt-2]1([NH3+])[O]C(=O)C2(CN(*)C2)C(=O)[O]1; Hexanoyl(6-maleimido) = O=C1C=CC(=O)N1CCCCCC(=O)*; Butanoyl(4-maleimido) = O=C1C=CC(=O)N1CCCC(=O)*; X3 = O=C1C=CC(=O)N1CCOCCOCCC(=O)*; PEG2 = NCCOCCOCCC(=O)O
Experiment: Water solubility test (observation and HPLC)
Format: physicochemical
Settings: thermodynamic from solid; lyophilized compound dissolved in water; checked by observation and HPLC (>95%)
Procedure: The compounds prepared in accordance with the examples of the disclosure and the reference compounds C1, C2, C3 and C4 were lyophilized (−70° C.).

| SMILES | solubility |
| --- | --- |
| CC(NC(=O)CCOCCOCCNC(=O)CCN1C(=O)C=CC1=O)C(=O)NC(C)C(=O)NC(CC(N)=O)C(=O)Nc1ccc(COC(=O)N2CC3(C2)C(=O)[O][Pt-2]([NH3+])([NH3+])[O]C3=O)cc1 (stereo not shown) [QHL-086-N-CBP] | > 20 mg/mL |
| COc1cccc2c1C(=O)c1c(O)c3c(c(O)c1C2=O)C[C@@](O)(C(=O)CO)C[C@@H]3O[C@H]1C[C@H](NC(=O)[C@H](CC(C)C)NC(=O)[C@H](CC(N)=O)NC(=O)[C@H](C)NC(=O)[C@H](C)NC(=O)[C@H](CCC(=O)O)NC(=O)CCOCCOCCNC(=O)CCCN2C(=O)C=CC2=O)[C@H](O)[C@H](C)O1 [QHL-063-DOX] ({Butanoyl(4-maleimido)-PEG2}-EAANL-{Doxorubicin(3'-N)}) | > 15 mg/mL |
| COc1cccc2c1C(=O)c1c(O)c3c(c(O)c1C2=O)C[C@@](O)(C(=O)CO)C[C@@H]3O[C@H]1C[C@H](NC(=O)[C@H](CC(C)C)NC(=O)[C@H](CC(N)=O)NC(=O)[C@H](C)NC(=O)[C@H](C)NC(=O)[C@H](CC(=O)O)NC(=O)CCOCCOCCOCCOCCN2C(=O)C=CC2=O)[C@H](O)[C@H](C)O1 [QHL-035-DOX] (MaleimidoPEG4propanoyl-DAANL-{Doxorubicin(3'-N)}) | > 25 mg/mL |
| COc1cccc2c1C(=O)c1c(O)c3c(c(O)c1C2=O)C[C@@](O)(C(=O)CO)C[C@@H]3O[C@H]1C[C@H](NC(=O)[C@H](CC(C)C)NC(=O)[C@H](CC(N)=O)NC(=O)[C@H](C)NC(=O)[C@H](C)NC(=O)[C@H](CC(=O)O)NC(=O)CCOCCOCCN2C(=O)C=CC2=O)[C@H](O)[C@H](C)O1 [QHL-033-DOX] (X3-DAANL-{Doxorubicin(3'-N)}) | > 20 mg/mL |
| C[C@H](NC(=O)CCOCCOCCOCCN1C(=O)C=CC1=O)C(=O)N[C@@H](C)C(=O)NC(CC(N)=O)C(=O)Nc1ccc(COC(=O)OCC(=O)[C@@]2(O)CCC3[C@H]4CCC5=CC(=O)C=C[C@@]5(C)C4C(=O)C[C@]32C)cc1 (stereo partly shown) [QHL-006-prednisone] | > 10 mg/mL |
| COc1cccc2c1C(=O)c1c(O)c3c(c(O)c1C2=O)C[C@@](O)(C(=O)CO)C[C@@H]3O[C@H]1C[C@H](NC(=O)[C@H](CC(C)C)NC(=O)[C@H](CC(N)=O)NC(=O)[C@H](C)NC(=O)[C@H](C)NC(=O)[C@H](CCCCN)NC(=O)CCCCCN2C(=O)C=CC2=O)[C@H](O)[C@H](C)O1 [QHL-135-DOX] ({Hexanoyl(6-maleimido)}-KAANL-{Doxorubicin(3'-N)}) | > 5 mg/mL |
| C[C@H](NC(=O)CCOCCOCCOCCOCCNC(=O)CCN1C(=O)C=CC1=O)C(=O)N[C@@H](C)C(=O)NC(CC(N)=O)C(=O)Nc1ccc(COC(=O)OCC(=O)[C@]2(O)CCC3[C@H]4CCC5=CC(=O)C=C[C@@]5(C)C4C(=O)C[C@]32C)cc1 (stereo partly shown) [QHL-092-prednisone] | > 10 mg/mL |
| COc1cccc2c1C(=O)c1c(O)c3c(c(O)c1C2=O)C[C@@](O)(C(=O)CO)C[C@@H]3O[C@H]1C[C@H](NC(=O)[C@H](CC(C)C)NC(=O)[C@H](CC(N)=O)NC(=O)[C@H](C)NC(=O)[C@H](C)NC(=O)CCOCCOCCOCCOCCOCCOCCN2C(=O)C=CC2=O)[C@H](O)[C@H](C)O1 [QHL-012-DOX] ({Mal(CH2CH2O)6CH2CH2CO}-AANL-{Doxorubicin(3'-N)}) | > 20 mg/mL |
| COc1cccc2c1C(=O)c1c(O)c3c(c(O)c1C2=O)C[C@@](O)(C(=O)CO)C[C@@H]3O[C@H]1C[C@H](NC(=O)[C@H](CC(C)C)NC(=O)[C@H](CC(N)=O)NC(=O)[C@H](C)NC(=O)[C@H](C)NC(=O)[C@H](CC(C)C)NC(=O)CCCCCN2C(=O)C=CC2=O)[C@H](O)[C@H](C)O1 [QHL-124-DOX] ({Hexanoyl(6-maleimido)}-LAANL-{Doxorubicin(3'-N)}) | > 5 mg/mL |
| CC(C)CC(NC(=O)C(CC(N)=O)NC(=O)C(C)NC(=O)C(C)NC(=O)CCCCCN1C(=O)C=CC1=O)C(=O)N1CC2(C1)C(=O)[O][Pt-2]([NH3+])([NH3+])[O]C2=O (stereo not shown) [QHL-138-N-CBP] ({Hexanoyl(6-maleimido)}-AANL-X4; configuration not given here) | > 20 mg/mL |
